# Measurements reported in the supplement of paper PMC8728848.
# The list shows a part of the results.
# B1: GNL (Galanthus nivalis) (protein)
# chain: MGHHHHHHHHYGTLENGHWLMVGMSIFSKDRTVELRMQDDGKLAIYYNDHCAWQSTAQQVNNAKGAVMQGDGNFCIYDKNGKATWHTNTAAPSGDSHTFVSVQDDGNLVLYKNNGATPIWSSKSNK
# What was measured:
# Test in all cases: glycan array binding signal (z-score within array); higher = stronger binding
# Conditions in all cases: glycan notation: IUPAC condensed, linker removed
# Neu5Ac(a2-8)Neu5Ac = target: Neu5Ac(a2-8)Neu5Ac
# In short: (§1)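 The binding signal is a Z-score computed within each array and averaged over linkers. Arrays of the same protein sequence at different concentrations or buffers were also averaged together. Data originate from 3228 arrays in the Consortium for Functional Glycomics database, kept only where the protein sequence was available.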
# [1] = target: Neu5Ac(a2-8)Neu5Ac(a2-3)Gal(b1-3)GalNAc(b1-4)[Neu5Ac(a2-3)]Gal(b1-4)Glc
# In short: as §1
# [2] = target: Neu5Ac(a2-8)Neu5Ac(a2-3)Gal(b1-3)GalNAc(b1-4)[Neu5Ac(a2-8)Neu5Ac(a2-3)]Gal(b1-4)Glc
# In short: as §1
# [3] = target: Neu5Ac(a2-8)Neu5Ac(a2-3)Gal(b1-4)Glc
# In short: as §1
# [4] = target: Neu5Ac(a2-8)Neu5Ac(a2-3)Gal(b1-4)GlcNAc
# In short: as §1
# [5] = target: Neu5Ac(a2-8)Neu5Ac(a2-3)[Gal(b1-3)GalNAc(b1-4)]Gal(b1-4)Glc
# In short: as §1
# [6] = target: Neu5Ac(a2-8)Neu5Ac(a2-3)[GalNAc(b1-4)]Gal(b1-4)Glc
# In short: as §1
# [7] = target: Neu5Ac(a2-8)Neu5Ac(a2-8)Neu5Ac
# In short: as §1
# [8] = target: Neu5Ac(a2-8)Neu5Ac(a2-8)Neu5Ac(a2-3)Gal(b1-4)Glc
# In short: as §1
# [9] = target: Neu5Ac(a2-8)Neu5Ac(a2-8)Neu5Ac(a2-3)[Gal(b1-3)GalNAc(b1-4)]Gal(b1-4)Glc
# In short: as §1
# [10] = target: Neu5Ac(a2-8)Neu5Ac(a2-8)Neu5Ac(a2-3)[GalNAc(b1-4)]Gal(b1-4)Glc
# In short: as §1
# [11] = target: Neu5Ac(a2-8)Neu5Ac(a2-8)Neu5Ac(a2-8)Neu5Ac(a2-3)[GalNAc(b1-4)]Gal(b1-4)Glc
# In short: as §1
# [12] = target: Neu5Ac(a2-8)Neu5Gc(a2-3)Gal(b1-4)GlcNAc
# In short: as §1
# [13] = target: Neu5Ac(b2-6)Gal(b1-4)GlcNAc
# In short: as §1
# Neu5Ac(b2-6)GalNAc = target: Neu5Ac(b2-6)GalNAc
# In short: as §1
# [14] = target: Neu5Ac9Ac(a2-3)Gal(b1-3)GlcNAc
# In short: as §1
# [15] = target: Neu5Ac9Ac(a2-3)Gal(b1-4)GlcNAc
# In short: as §1
# [16] = target: Neu5Ac9Ac(a2-6)Gal(b1-4)GlcNAc
# In short: as §1
# [17] = target: Neu5Gc(a2-3)Gal(b1-3)GlcNAc
# In short: as §1
# [18] = target: Neu5Gc(a2-3)Gal(b1-3)[Fuc(a1-4)]GlcNAc
# In short: as §1
# Neu5Gc(a2-3)Gal(b1-4)Glc = target: Neu5Gc(a2-3)Gal(b1-4)Glc
# In short: as §1
# [19] = target: Neu5Gc(a2-3)Gal(b1-4)GlcNAc
# In short: as §1
# [20] = target: Neu5Gc(a2-3)Gal(b1-4)GlcNAc(b1-3)Gal(b1-4)GlcNAc(b1-2)Man(a1-3)[Neu5Gc(a2-3)Gal(b1-4)GlcNAc(b1-3)Gal(b1-4)GlcNAc(b1-2)Man(a1-6)]Man(b1-4)GlcNAc(b1-4)GlcNAc
# In short: as §1
# [21] = target: Neu5Gc(a2-3)Gal(b1-4)[Fuc(a1-3)]GlcNAc
# In short: as §1
# [22] = target: Neu5Gc(a2-6)Gal(b1-4)GlcNAc
# In short: as §1
# Neu5Gc(a2-6)GalNAc = target: Neu5Gc(a2-6)GalNAc
# In short: as §1
# [23] = target: Neu5Gc(a2-8)Neu5Ac(a2-3)Gal(b1-4)GlcNAc
# In short: as §1
# [24] = target: Neu5Gc(a2-8)Neu5Gc(a2-3)Gal(b1-4)GlcNAc
# In short: as §1
# [25] = target: Neu5Gc(a2-8)Neu5Gc(a2-3)Gal(b1-4)GlcNAc(b1-3)Gal(b1-4)GlcNAc
# In short: as §1
# [26] = target: Neu5Gc(a2-8)Neu5Gc(a2-6)Gal(b1-4)GlcNAc
# In short: as §1
# [27] = target: Neu5Gc(b2-6)Gal(b1-4)GlcNAc
# In short: as §1
binder,measurement,setting,value
B1,glycan array binding signal (z-score),Neu5Ac(a2-8)Neu5Ac,-0.189
same,glycan array binding signal (z-score),[1],-0.285
same,glycan array binding signal (z-score),[2],-0.164
same,glycan array binding signal (z-score),[3],-0.235
same,glycan array binding signal (z-score),[4],-0.236
same,glycan array binding signal (z-score),[5],-0.165
same,glycan array binding signal (z-score),[6],-0.133
same,glycan array binding signal (z-score),[7],-0.183
same,glycan array binding signal (z-score),[8],-0.273
same,glycan array binding signal (z-score),[9],-0.228
same,glycan array binding signal (z-score),[10],-0.162
same,glycan array binding signal (z-score),[11],-0.297
same,glycan array binding signal (z-score),[12],-0.208
same,glycan array binding signal (z-score),[13],-0.268
same,glycan array binding signal (z-score),Neu5Ac(b2-6)GalNAc,-0.311
same,glycan array binding signal (z-score),[14],-0.295
same,glycan array binding signal (z-score),[15],-0.239
same,glycan array binding signal (z-score),[16],-0.211
same,glycan array binding signal (z-score),[17],-0.289
same,glycan array binding signal (z-score),[18],-0.257
same,glycan array binding signal (z-score),Neu5Gc(a2-3)Gal(b1-4)Glc,-0.224
same,glycan array binding signal (z-score),[19],-0.202
same,glycan array binding signal (z-score),[20],0.079
same,glycan array binding signal (z-score),[21],-0.282
same,glycan array binding signal (z-score),[22],-0.213
same,glycan array binding signal (z-score),Neu5Gc(a2-6)GalNAc,-0.125
same,glycan array binding signal (z-score),[23],-0.26
same,glycan array binding signal (z-score),[24],-0.248
same,glycan array binding signal (z-score),[25],-0.254
same,glycan array binding signal (z-score),[26],-0.194
same,glycan array binding signal (z-score),[27],-0.22
